Measured values from patent US20240115649A1, “CASPASE INHIBITION TO ENHANCE REGENERATION AND REPAIR AFTER SKIN OR GUT INJURY AND TO TREAT BACTERIAL OR VIRAL INFECTIONS” (The Johns Hopkins University, priority 2020, published 2024).
Read-outs that look alike come from different tables or passages of the source.

What was measured:
[1] = test system: CA-MRSA strain USA300 LAC::lux
From the text: (§1) In vivo mouse models of bacterial skin infections. All animal studies were approved by the Johns Hopkins University Animal Care and Use Committee. For all experiments, 6-8-week-old sex- and age-matched mice were used. The dorsal backs of anesthetized (inhalation isoflurane [2%]) mice were shaved and inoculated via intradermal (i.d.) injection of CA-MRSA strain USA300 LAC::lux (3×10^7 CFU (25, 26)), S. pyogenes strain Xen20 (5×10^5 CFU (42)) or P. aeruginosa strain Xen41 (5×10^6 CFU (43)) in 100 μL of PBS using a 29-gauge insulin syringe. In some experiments, an anti-TNF mAb or isotype control mAb was administered via i.p. injection on days −1, 0 and 1 of the S. aureus skin inoculation.
(§2) Measurement of total lesion size. Total lesion size (cm^2) was measured from digital photographs of the back skin of anesthetized mice (2% isoflurane) using ImageJ software and a millimeter ruler as a reference.
In vivo whole animal bioluminescence and fluorescence imaging. In vivo bioluminescence imaging (BLI) to provide an approximation of the in vivo bacterial burden (when used in conjunction USA300 LAC::lux, Xen20 or Xen41 bioluminescent bacterial strains) and in vivo fluorescence imaging (FLI) (when used in conjunction with ASC-Citrine mice) were performed on anesthetized mice (2% isoflurane) using a Lumina III in vivo imaging system (IVIS) (PerkinElmer). For in vivo BLI, data are presented on a color scale overlaid on a grayscale photograph of the mice and quantified within a 1×10^3 pixel circular region of interest (ROI) as total flux (photons/s). ASC-Citrine FLI signals were measured using a 488 nm excitation wavelength and a 507 nm emission wavelength and an exposure time of 0.5 seconds. In vivo FLI data are presented on a color scale overlaid on a grayscale photograph of the mice and quantified within a rectangular ROI as total radiant efficiency ([photons/s]/[mW/cm^2]).
Ex vivo CFU enumeration. Skin tissue homogenates were obtained by performing a 10-mm lesional skin punch biopsy (Acuderm) and homogenizing each specimen (Pro200 Series homogenizer; Pro Scientific) in Reporter Lysis Buffer (Promega) containing protease inhibitor cocktail tablets (Roche Life Sciences) at 4° C. Ex vivo CFUs were counted after plating serially diluted skin tissue homogenates overnight on TSA plates.
Histology. Skin punch biopsy specimens (10 mm) were collected on day 3, fixed in formalin (10%) and embedded in paraffin. Sections (4 μm) were mounted onto glass slides and stained with hematoxylin and eosin (H&E) and Gram stain and digitally scanned by the Johns Hopkins Reference Histology Laboratory, according to guidelines used for clinical specimens. The images were analyzed using Aperio ImageScope (v12.4) image analysis software (Leica Biosystems). Dermonecrosis area (mm) was determined by manually measuring the width of dermonecrosis observed in each H&E section. The abscess area was determined by manually outlining the neutrophilic abscess in each H&E stained section and image analysis calculation of the area. Bacterial band width (mm) was determined by manually measuring the width of the bacterial band in each Gram-stained section.

[2] = test system: P. aeruginosa strain Xen41; assay: P. aeruginosa skin infection model; conditions: mortality of 40% of the untreated mice
From the text: as §1, §2
In vivo whole animal bioluminescence and fluorescence imaging. In vivo bioluminescence imaging (BLI) to provide an approximation of the in vivo bacterial burden (when used in conjunction USA300 LAC::lux, Xen20 or Xen41 bioluminescent bacterial strains) and in vivo fluorescence imaging (FLI) (when used in conjunction with ASC-Citrine mice) were performed on anesthetized mice (2% isoflurane) using a Lumina III in vivo imaging system (IVIS) (PerkinElmer). […]

[3] = ASC^−/− mice, 20 mg/kg i.p. at 4 hours, vs untreated
[4] = Gasdermin D^−/− mice, 20 mg/kg i.p. at 4 hours, vs untreated
[5] = IL-1β^−/− mice, 20 mg/kg i.p. at 4 hours, vs untreated
[6] = TNF/IL-1R^−/− mice, 20 mg/kg i.p. at 4 hours, vs untreated
[7] = TNF^−/− mice, 20 mg/kg i.p. at 4 hours, vs untreated
[8] = WT mice administered αTNF mAb on days −1, 0 and 1, vs untreated
[9] = WT mice, H&E sections, day 3, vs untreated
[10] = caspase-1/11^−/− mice, 20 mg/kg i.p. at 4 hours
[11] = caspase-1^−/− mice, 20 mg/kg i.p. at 4 hours
[12] = caspase-11^−/− mice, 20 mg/kg i.p. at 4 hours

For `CC(C)[C@H](NC(=O)c1ccc2ccccc2n1)C(=O)N[C@@H](CC(=O)O)C(=O)COc1c(F)cccc1F` [Q-VD-OPH, Quinoline-val-asp-difluorophenoxymethyl ketone], the “in vivo BLI imaging signals” value ([1]; ASC-Citrine mice, 6 hours following Q-VD-OPH administration, vs untreated) was “no difference”, the “in vivo BLI signals” value [1, 3] was “substantially reduced” and the skin lesions [1, 3] was “substantially reduced”. The “in vivo BLI signals” value [1, 4] was “substantially reduced”, the skin lesions [1, 4] was “substantially reduced” and the “in vivo BLI signals” value [1, 5] was “substantially reduced”. The skin lesions [1, 5] was “substantially reduced”, the “in vivo BLI signals” value [1, 6] was “no significant difference” and the lesion sizes [1, 6] was “significantly smaller lesion sizes”. For the same compound, the “in vivo BLI signals” value [1, 7] was “no significant difference”, the lesion sizes [1, 7] was “significantly smaller lesion sizes” and the skin lesion sizes ([1]; WT C57BL/6 mice, single dose 20 mg/kg i.p. at 4 hours after inoculation, vs vehicle or untreated) was “rapidly and substantially reduced skin lesion sizes”. For the same compound, the “in vivo BLI signals” value ([1]; WT mice administered isotype control mAb, vs untreated) was “decreased in vivo BLI signals”, the “in vivo BLI signals” value [1, 8] was “no significant difference” and the lesion sizes [1, 8] was “significantly smaller lesion sizes”. For the same compound, the bacterial band length ([1]; WT mice, Gram-stained sections, day 3, vs untreated) was “decreased bacterial band length”, the abscess area [1, 9] was “decreased” and the dermonecrosis width [1, 9] was “decreased dermonecrosis width”. The “bacterial burden (in vivo BLI signals and ex vivo CFU on day 3)” value ([1]; WT mice, single dose 20 mg/kg i.p. at 4 hours, vs vehicle or untreated) was “rapidly and substantially reduced”, the “in vivo BLI signals” value [1, 10] was “markedly decreased” and the skin lesion sizes [1, 10] was “markedly decreased”. For the same compound, the “in vivo BLI signals” value [1, 11] was “markedly decreased”, the skin lesion sizes [1, 11] was “markedly decreased” and the “in vivo BLI signals” value [1, 12] was “markedly decreased”. For the same compound, the skin lesion sizes [1, 12] was “markedly decreased” and the “mortality following bacterial dissemination” value [2] was “none of the mice treated with Q-VD-OPH succumbed to the infection”.
